In all, about 320,000 compounds went through this assay and about 9,100 (2.8%) were called active. Inconclusive means that the source gave no clear call. Such entries were picked first, then a sample of the others. Calls come from the whole dose curve; as a rule, active = well fitted activation curve with a large enough effect; inconclusive = small, poorly fitted or top-dose-only effect; inactive = no such curve, though single readings can be large or run the other way. Potencies of inconclusive entries are left out as doubtful fits.
Test: qHTS Assay for Rab9 Promoter Activators; note: nearly all actives have a fitted effect of over 60% in size; for activation, negative = inhibition: % of control where 0% means no effect
Settings: Huh7 Rab9 promoter-luciferase reporter, luminescence, 24 h; series mostly up to 9.22 µM; activation, negative = inhibition: at the top concentration
Outline: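 Stable Rab9-luc Huh7, 1500 cells/well, 2 h settle; cmpd in DMSO, 24 h, 37 °C/5% CO2; luciferase reagent 10 min RT; luminescence.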
Potency is the fitted concentration of half-maximal effect; tags give direction and shape of the fitted curve.

| SMILES | Potency | activation, negative = inhibition |
| --- | --- | --- |
| Cn1cccc1C(=O)NNC(=O)COc1ccccc1F | inconclusive [activator, partial curve] | – |
| C/C(=N\Nc1ccc(Cl)c(C(=O)O)c1)c1ccc[nH]1 | – | inactive: 12.5% |
| O=C(Nc1ccc(OC(F)(F)F)cc1)Nc1cccnc1 | inconclusive [activator, single point] | – |
| COc1cccc(Nc2nc(-c3sc(N)nc3C)cs2)c1 | inconclusive [activator, single point] | – |
| CC(=O)N1N=C(c2ccc(C)cc2)OC1c1ccc(C(C)C)cc1 (centres undefined) | active: 2.51 µM | – |
| CCCc1ccc(-c2cc(C(=O)N/N=C/c3ccc([N+](=O)[O-])o3)c3ccccc3n2)cc1 | inconclusive [activator, partial curve] | – |
| O=C(N/N=C/c1cccs1)c1ccccn1 | active: 2.51 µM | – |
| C=C(C)CNC(=O)CCc1nnc(Cc2cccc(C(F)(F)F)c2)o1 | inconclusive [activator, single point] | – |
| COc1ccc(-c2csc(N)n2)cc1 | inconclusive [activator, partial curve] | – |
| CN1CCN(C(=S)c2ccc(-c3cccc(Cl)c3Cl)o2)CC1 | inconclusive [activator, single point] | – |
| Cc1ccc(N2C(=O)/C(=C/c3ccco3)SC2=S)cc1 | inconclusive [activator, single point] | – |
| CC1(c2ccc(Cl)cc2)NC(=O)N(CC(=O)NC(=O)NCc2ccco2)C1=O (centres undefined) | inconclusive [activator, single point] | – |
| COc1ccc(/C(C)=N/Nc2ccc(F)cc2F)c(O)c1 | inconclusive [activator, single point] | – |
| CCCn1c(=O)c2ccccc2n2c(SCC(=O)c3cc(C)n(CC4CCCO4)c3C)nnc12 (centres undefined) | – | inactive: 2.7% |
| CC(=O)Oc1ccc(-c2csc(Nc3cccc(C)n3)n2)cc1 | inconclusive [activator, single point] | – |
| CCC(C)c1ccc(NC(=O)c2cccnc2)cc1 (centres undefined) | active: 2.51 µM | – |
| Cc1ccc(C(=O)CSc2nnc3n2CCCCC3)s1 | inconclusive [activator, single point] | – |
| CC(C)CN1CCC(=O)N(CCOc2ccccc2)CC1 | inconclusive [activator, single point] | – |
| O=C(O)c1ccc(Nc2nc3c(s2)CCCC3)cc1 | active: 0.0398 µM | – |
| Cc1ccc(NC(=O)NCCCN2CCCC2=O)cc1Cl | inconclusive [activator, single point] | – |
| O=C(CC(Nc1ccc(Cl)cc1)C(=O)O)c1ccccc1 (centres undefined) | active: 2.24 µM | – |
| COc1ccc(NC(=O)c2ccc3c(c2)OCO3)cc1Cl | active: 1.41 µM | – |
| Cc1cccc(NC(=S)NNC(=O)c2sccc2C)c1 | inconclusive [activator, single point] | – |
| CS(=O)(=O)c1ccc2nc(NC(=O)c3ccc(Cl)nc3)sc2c1 | – | inactive: 10.6% |
| CCn1cc([N+](=O)[O-])c(C(=O)Nc2ccc3c(c2)OCCO3)n1 | inconclusive [activator, partial curve] | – |

| SMILES | Potency | activation, negative = inhibition |
| --- | --- | --- |
| Cc1cccc(-c2ccc3ncnc(N(C)Cc4ccco4)c3c2)c1 | – | inactive: 18.7% |
| O=C(Nc1ccccc1Cl)c1ccc2nccnc2c1 | active: 2.51 µM | – |
| Cc1nnc(SCc2ccc(F)cc2)s1 | inconclusive [activator, partial curve] | – |
| CCCCCc1nnc(NC(=O)C2=COCCO2)s1 | active: 2.24 µM | – |
| Cc1ccn2cc(-c3ccc(S(=O)(=O)N4CCOCC4)cc3)nc2c1 | inconclusive [activator, partial curve] | – |
| O=C(Nc1ccccn1)C1CCN(S(=O)(=O)c2ccccc2)CC1 | inconclusive [activator, partial curve] | – |
| COc1ccc(C2Nc3ccccc3C(=O)N2c2ccc(C)cc2)cc1Cn1cc([N+](=O)[O-])cn1 (centres undefined) | active: 3.98 µM | – |
| Cc1ccc(OCC(=O)Nc2cc(C)on2)c([N+](=O)[O-])n1 | inconclusive [activator, single point] | – |
| O=C(COc1ccc(Br)cc1Cl)NC(=S)Nc1ccccn1 | inconclusive [activator, partial curve] | – |
| CC(Nc1c[nH]c(=O)[nH]c1=O)c1ccccc1 (centres undefined) | – | inactive: 7.63% |
| S=c1[nH]c(-c2ccccc2)cn1/N=C/c1ccc(Br)cc1 | inconclusive [activator, full curve, poor fit] | – |
| CCOC(=O)c1ccc(NC(=O)CCc2nc(-c3ccc(C)cc3)no2)cc1 | – | inactive: 7.89% |
| CC(/C=C1\SC(=S)N(CCCC(=O)Nc2ccc(C(=O)O)c(O)c2)C1=O)=C\c1ccccc1 | inconclusive [activator, partial curve] | – |
| CCOc1ccccc1N(C)C(=O)c1cn(CC)c(=O)c2cc(OC)c(OC)cc12 | inconclusive [activator, single point] | – |
| COc1cccc(-n2cc3c(=O)n(C)c(=O)n(C)c3c2)c1 | inconclusive [activator, partial curve] | – |
| O=C(NCc1ccccn1)c1ccc2nc(C3CCCCC3)oc2c1 | inconclusive [activator, partial curve] | – |
| O=C(NCC(=O)N(Cc1ccco1)C(C(=O)NC1CCCCC1)c1cccnc1)c1cccs1 (centres undefined) | – | inactive: -6.54% |
| O=C(COc1ccc2ccccc2c1Br)NC(=S)Nc1cccc(CO)c1 | inconclusive [activator, partial curve] | – |
| CC(=O)N1CCOc2ccc(S(=O)(=O)NCC3CCC(C(=O)NCCC(C)C)CC3)cc21 (centres undefined) | – | inactive: 3.46% |
| O=C(NCc1ccccn1)c1cc2ccccc2oc1=O | inconclusive [activator, partial curve] | – |
| Cc1ccc(NC(=O)c2cc(-c3ccccc3O)n[nH]2)cc1Cl | inconclusive [activator, partial curve] | – |
| O=C(NCC(=O)N1CCN(c2ccccc2O)CC1)c1ccccc1 | inconclusive [activator, partial curve] | – |
| O=C(O)c1c2c(nc3ccccc13)/C(=C/c1ccc(O)cc1)CC2 | inconclusive [activator, partial curve] | – |
| Cn1cccc1/C=N/NC(=O)c1cccs1 | inconclusive [activator, partial curve] | – |
| Cn1c(=O)c2cn(-c3ccc4c(c3)OCCO4)cc2n(C)c1=O | inconclusive [activator, single point] | – |

| SMILES | Potency | activation, negative = inhibition |
| --- | --- | --- |
| COc1cc(SC)ccc1C(=O)NCC1CCCCC1 | – | inactive: 20% |
| Cc1cc(C(=O)COc2ccccc2C(N)=O)c(C)n1C1CC1 | inconclusive [activator, single point] | – |
| Cc1nc2c(-c3ccccc3)c[nH]n2c(=O)c1Cc1ccccc1 | inconclusive [activator, partial curve] | – |
| Fc1ccc(CSc2nnc(Cc3sc(-c4ccccc4)nc3-c3ccccc3)o2)cc1 | inconclusive [activator, single point] | – |
| CCOC(=O)CNC(=O)c1ccc2c(c1)OCCO2 | inconclusive [activator, partial curve] | – |
| O=C(C[n+]1cc(-c2ccc(F)cc2)n2c1CCC2)N1c2ccccc2Sc2ccccc21 | active: 2.82 µM | – |
| O=C(NC1CCCC1)C1CC(O)CN1C(=O)Nc1ccccc1 (centres undefined) | – | inactive: 8.81% |
| COC(=O)c1ccc(NC(=O)Nc2ccc3c(c2)OCO3)cc1 | inconclusive [activator, single point] | – |
| O=C(Nc1nc2cc3c(cc2s1)OCCO3)c1ccco1 | active: 0.794 µM | – |
| NC(=O)c1ccsc1NC(=O)c1ccc2c(c1)CCCC2 | inconclusive [activator, single point] | – |
| Cc1ccc(S(=O)(=O)C(C)C(=O)c2ccc3c(c2)OCCO3)cc1 (centres undefined) | inconclusive [activator, single point] | – |
| Cc1cc2oc(C(=O)Nc3nonc3C)c(C)c2cc1Cl | active: 3.55 µM | – |
| COc1ccccc1N1C(=O)S/C(=C\c2cc(C)n(C)c2C)C1=O | active: 2.51 µM | – |
| O=C(CSc1nc2ccccc2o1)c1ccc2c(c1)OCCO2 | inconclusive [activator, single point] | – |
| CCc1ccc2nc(NC(=O)CCCc3cccs3)sc2c1 | inconclusive [activator, partial curve] | – |
| Nc1nc(CSCc2ccccc2)nc(N2CCOCC2)n1 | inconclusive [activator, partial curve] | – |
| CCn1ccnc1CN(C)Cc1nc(-c2cccc(Cl)c2)no1 | inconclusive [activator, partial curve] | – |
| CCCCSc1nsc(NC(C)=O)n1 | active: 1.41 µM | – |
| O=C(CSc1nnc(-c2ccccc2)o1)N1CCCC1 | inconclusive [activator, partial curve] | – |
| O=C(CCNC(=O)c1ccc(Br)o1)NCc1ccc(Cl)cc1 | inconclusive [activator, partial curve] | – |
| COc1ccc(/C=C2\N=C3CCCN3C2=O)cc1 | inconclusive [activator, single point] | – |
| CCN(C(=O)COC(=O)/C=C/c1c(C)nn(-c2ccccc2)c1C)C1CCS(=O)(=O)C1 (centres undefined) | – | inactive: -1.16% |
| CC(C#Cc1ccc2c(c1)COc1c3ccccc3nn1-2)OC(C)(C)C (centres undefined) | inconclusive [activator, partial curve] | – |
| COc1ccc(O)c(C(=O)c2cnn(-c3ccccc3)c2)c1 | inconclusive [activator, single point] | – |
